# Experimental data from the supplement of paper PMC12217912.
# The list shows a part of the results. The full chains were built here from the parent and the listed change. Inactive controls read about 0.05.
# B1: TEV protease; numbered along this chain (parent)
# chain: MGESLFKGPRDYNPISSSICHLTNESDGHTTSLYGIGFGPFIITNKHLFRRNNGTLVVQSLHGVFKVKDTTTLQQHLVDGRDMIIIRMPKDFPPFPQKLKFREPQREERICLVTTNFQTKSMSSMVSDTSCTFPSGDGIFWKHWIQTKDGQCGSPLVSTRDGFIVGIHSASNFTNTNNYFTSVPKNFMELLTNQEAQQWVSGWRLNADSVLWGGHKVFMVKPEEPFQPVKEATQL
# Variants of: B1
# Test: raw area under fraction-flipped curve 0-4 h after induction (AUC4h, not background-subtracted), DNA-recorder readout of cleavage of the substrate (dimensionless); higher = more cleavage of the substrate by the protease variant
# Details: temperature: 34 °C; time window: 0-4 h after rhamnose induction
# 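Note: Bxb1 expression induced with 0.2% (w/v) L-rhamnose at OD600 near 0.5, cultures sampled hourly, flipped fraction per protease–substrate barcode pair counted by paired-end Illumina sequencing.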
Variant,area with substrate ENLDFQS,area with substrate ENLFFQS,area with substrate ENLHFQS,area with substrate ENLKFQS,area with substrate ENLMFQS,area with substrate ENLNFQS,area with substrate ENLQFQS,area with substrate ENLSFQS,area with substrate ENLTFQS,area with substrate ENLEFQS
MGESLFKGPRDYNPISSSICHLTNESDGHTTSLYGIGFGPFIITNKHLFRRNNGTLVVQSLHGVFKVKDTTTLQQHLVDGRDMIIIRMPKDFPPFPQKLKFREPQREERICLVTTNFQTKSMSSMVSDTSCTFPSGDGIFWKHWIQTKDGQCGSPLVSTRDGFIVGIHSASNFTNRNNYFTSVPKNFMELLTNQEAQQWVSGWRLNADSVLWGGHKVFMVKPEEPFQPVKEATQL [T176R],0.072,0.0635,0.0522,0.0745,0.0629,0.0669,0.0673,0.0552,0.0655,–
MGESLFKGPRDYNPISSSICHLTNESDGHTTSLYGIGFGPFIITNKHLFRRNNGTLVVQSLHGVFKVKDTTTLQQHLVDKRDMIIIRMPKDFPPFPQKLKFREPQREERICLVTTNFQTKSMSSMVSDTSCTFPSGDGIFWKHWIQTKDGQCGSPLVSTRDGFIVGIHSASNFTNTNNYFTSVPKNFMELLTNQEAQQWVSGWRLNADSVLWGGHKVFMVKPEEPFQPVKEATQL [G80K],0.0631,0.104,0.073,0.0754,0.0633,0.0795,–,0.0788,–,0.0676
MGESLFKGPRDYNPISSSICHLTNESDGHTTSLYGIGFGPFIITNKHLFRRNNGTLVVQSLHGVFKVKDTTTLQQHLVDGRDMIIIRMPKDFPPFKQKLKFREPQREERICLVTTNFQTKSMSSMVSDTSCTFPSGDGIFWKHWIQTKDGQCGSPLVSTRDGFIVGIHSASNFTNTNNYFTSVPKNFMELLTNQEAQQWVSGWRLNADSVLWGGHKVFMVKPEEPFQPVKEATQL [P96K],0.0972,0.0786,0.0752,0.0827,–,0.0754,–,0.0658,–,0.0513
MGESLFKGPRDYNPISSSICHLTNESDGHTTSLYGIGFGPFIITNKHLFRRNNGTLVVQSLHGVFKVKDTTTLQQHLVDGRDMIIIRMPKDFPPFPQKLKFREPQREERICLVTTNFQTKSMSSMVSDTSCTFPSGDGIFWKHWIQTKDGQCGSPLVSTRDGFIVGIHSASNFTNTNNYFTSVPKNFMELLTNQEAQQWVSGWRLNADSVLWGGHKVFMVKPEEPFQPVKEFTQL [A232F],0.0557,0.0751,0.0664,0.0732,–,0.0654,0.0555,0.0638,–,–
MGESLFKGPRDYNPISSSICHLTNESDGHTTSLYGIGFGPFIITNKHLFRRNNGTLVVQSLHGVFKVKDTTTLQQHLVDGRDMIIIRMPKDFPPFPQKLKFREPQREERICLVTTNFQTKSMSSMVSITSCTFPSGDGIFWKHWIQTKDGQCGSPLVSTRDGFIVGIHSASNFTNTNNYFTSVPKNFMELLTNQEAQQWVSGWRLNADSVLWGGHKVFMVKPEEPFQPVKEATQL [D128I],0.0582,–,–,0.0917,–,–,–,–,–,0.0659
MGESLFKGPRDYNPISSSICHLTNESDGHTTILYGIGFGPFIITNKHLFRRNNGTLVVQSLHGVFKVKDTTTLQQHLVDGRDMIIIRMPKDFPPFPQKLKFREPQREERICLVTTNFQTKSMSSMVSDTSCTFPSGDGIFWKHWIQTKDGQCGSPLVSTRDGFIVGIHSASNFTNTNNYFTSVPKNFMELLTNQEAQQWVSGWRLNADSVLWGGHKVFMVKPEEPFQPVKEATQL [S32I],0.0651,0.0736,0.0733,0.0705,–,0.0625,0.0583,0.0455,–,0.0308
MGESLFKGPRDYNPISSSICHLTNESDGHTTSLYGIGFGPFIITNKHLFRRNNGTIVVQSLHGVFKVKDTTTLQQHLVDGRDMIIIRMPKDFPPFPQKLKFREPQREERICLVTTNFQTKSMSSMVSDTSCTFPSGDGIFWKHWIQTKDGQCGSPLVSTRDGFIVGIHSASNFTNTNNYFTSVPKNFMELLTNQEAQQWVSGWRLNADSVLWGGHKVFMVKPEEPFQPVKEATQL [L56I],0.042,0.0924,–,–,–,0.0663,0.0629,0.0684,–,0.0688
MGESLFKGPRDYNPISSSICHLTHESDGHTTSLYGIGFGPFIITNKHLFRRNNGTLVVQSLHGVFKVKDTTTLQQHLVDGRDMIIIRMPKDFPPFPQKLKFREPQREERICLVTTNFQTKSMSSMVSDTSCTFPSGDGIFWKHWIQTKDGQCGSPLVSTRDGFIVGIHSASNFTNTNNYFTSVPKNFMELLTNQEAQQWVSGWRLNADSVLWGGHKVFMVKPEEPFQPVKEATQL [N24H],–,0.0693,–,0.0677,0.0567,0.071,–,0.0686,–,0.0576

# Same assay, conditions: temperature: 34 °C; time window: 0-4 h after rhamnose induction
Variant,area with substrate ENLGFQS,area with substrate ENLIFQS,area with substrate ENLPFQS,area with substrate ENLRFQS,area with substrate ENLVFQS,area with substrate ENLLFQS,area with substrate ENLWFQS
MGESLFKGPRDYNPISSSICHLTNESDGHTTSLYGIGFGPFIITNKHLFRRNNGTLVVQSLHGVFKVKDTTTLQQHLVDKRDMIIIRMPKDFPPFPQKLKFREPQREERICLVTTNFQTKSMSSMVSDTSCTFPSGDGIFWKHWIQTKDGQCGSPLVSTRDGFIVGIHSASNFTNTNNYFTSVPKNFMELLTNQEAQQWVSGWRLNADSVLWGGHKVFMVKPEEPFQPVKEATQL [G80K],0.0673,0.075,0.062,0.0605,0.0708,–,–
MGESLFKGPRDYNPISSSICHLTNESDGHTTSLYGIGFGPFIITNKHLFRRNNGTLVVQSLHGVFKVKDTTTLQQHLVDGRDMIIIRMPKDFPPFKQKLKFREPQREERICLVTTNFQTKSMSSMVSDTSCTFPSGDGIFWKHWIQTKDGQCGSPLVSTRDGFIVGIHSASNFTNTNNYFTSVPKNFMELLTNQEAQQWVSGWRLNADSVLWGGHKVFMVKPEEPFQPVKEATQL [P96K],–,–,–,–,–,0.0609,0.0651
MGESLFKGPRDYNPISSSICHLTNESDGHTTSLYGIGFGPFIITNKHLFRRNNGTLVVQSLHGVFKVKDTTTLQQHLVDGRDMIIIRMPKDFPPFPQKLKFREPQREERICLVTTNFQTKSMSSMVSDTSCTFPSGDGIFWKHWIQTKDGQCGSPLVSTRDGFIVGIHSASNFTNTNNYFTSVPKNFMELLTNQEAQQWVSGWRLNADSVLWGGHKVFMVKPEEPFQPVKEFTQL [A232F],–,–,–,0.0722,0.0738,0.0393,–
MGESLFKGPRDYNPISSSICHLTNESDGHTTSLYGIGFGPFIITNKHLFRRNNGTLVVQSLHGVFKVKDTTTLQQHLVDGRDMIIIRMPKDFPPFPQKLKFREPQREERICLVTTNFQTKSMSSMVSITSCTFPSGDGIFWKHWIQTKDGQCGSPLVSTRDGFIVGIHSASNFTNTNNYFTSVPKNFMELLTNQEAQQWVSGWRLNADSVLWGGHKVFMVKPEEPFQPVKEATQL [D128I],–,–,0.0638,–,–,–,0.0851
MGESLFKGPRDYNPISSSICHLTNESDGHTTILYGIGFGPFIITNKHLFRRNNGTLVVQSLHGVFKVKDTTTLQQHLVDGRDMIIIRMPKDFPPFPQKLKFREPQREERICLVTTNFQTKSMSSMVSDTSCTFPSGDGIFWKHWIQTKDGQCGSPLVSTRDGFIVGIHSASNFTNTNNYFTSVPKNFMELLTNQEAQQWVSGWRLNADSVLWGGHKVFMVKPEEPFQPVKEATQL [S32I],0.0494,0.0764,0.0869,0.0729,–,–,–
MGESLFKGPRDYNPISSSICHLTNESDGHTTSLYGIGFGPFIITNKHLFRRNNGTIVVQSLHGVFKVKDTTTLQQHLVDGRDMIIIRMPKDFPPFPQKLKFREPQREERICLVTTNFQTKSMSSMVSDTSCTFPSGDGIFWKHWIQTKDGQCGSPLVSTRDGFIVGIHSASNFTNTNNYFTSVPKNFMELLTNQEAQQWVSGWRLNADSVLWGGHKVFMVKPEEPFQPVKEATQL [L56I],–,–,–,0.0801,–,–,–
MGESLFKGPRDYNPISSSICHLTHESDGHTTSLYGIGFGPFIITNKHLFRRNNGTLVVQSLHGVFKVKDTTTLQQHLVDGRDMIIIRMPKDFPPFPQKLKFREPQREERICLVTTNFQTKSMSSMVSDTSCTFPSGDGIFWKHWIQTKDGQCGSPLVSTRDGFIVGIHSASNFTNTNNYFTSVPKNFMELLTNQEAQQWVSGWRLNADSVLWGGHKVFMVKPEEPFQPVKEATQL [N24H],0.0809,0.0766,0.0578,0.0732,0.0904,–,0.068
